In patent publication US20250059201A1, “CAMPTOTHECIN COMPOUND AND CONJUGATE THEREOF” (priority 2021, published 2025):
Several values for one entry are separate records, joined by “and”; a condition that tells them apart may be missing. Identical values can stand only once. Like-named read-outs stand apart in the source and are kept apart here.

Columns and labels:
[1] = system: BxPC3 cell line having high expression of Trop-2; assay: Cell killing effect in vitro of ADCs targeting Trop-2 (MTS); format: cell-based, human; settings: BXPC3: 5000 cells/well, 120 h
Protocol: BxPC3 cell line having high expression of Trop-2 (purchased from: ATCC) was taken from liquid nitrogen, and recovered. Then the density of the cells was adjusted to 5×10^4/mL with complete medium, and the cells were added to cell culture plates (96-well plates were used, and sterile PBS or sterile purified water was added at 200 µL/well into rows A and H, and columns 1 and 12 of the plates) at 100 μL/well, and cultured overnight.
Samples of ADCs targeting Trop-2 prepared above were diluted respectively to 50 µg/ml using complete medium, followed by 4-fold gradient dilution, and 9 concentrations and concentration zero were obtained. The diluted samples were added into the cell culture plates, and three duplicate wells were set for each of the diluted samples; and a negative control well (cell+medium) and a blank control well (no cells, medium only) were set in column 11 of the plates. Next, the plates were placed in a cell incubator and the cells were incubated for 120 h. After the incubation, MTS was added at 40 μL/well to the plates which were then placed back into the 37° C. incubator and allowed for reacting for 2-4 h. Then the cell plates were taken out, and OD values at 490 nm were read on a microplate reader.

[2] = system: HS-746T tumor cells expressing antigen of low abundance; assay: Cell killing effect in vitro on tumor cells expressing antigen of low abundance (flow cytometry cell count); format: cell-based; settings: 168 hours
Protocol: HS-746T cells were purchased from ATCC. The cells were cultured in RPMI 1640/IMEM (1:1) containing 10% Fetal Bovine Serum (FBS) with penicillin and streptomycin supplemented simultaneously, and cultured at 37° C. in air containing 5% CO2 in an incubator.
After inoculation, the cells were treated for 168 hours respectively with 0.1 g/mL and 1 g/mL Trop2-ADC-1, Trop2-ADC-2, Trop2-ADC-5, Trop2-ADC-10, and Trop2-ADC-14, and then the cells were harvested and counted. Next, the cells were incubated with Dylight 488 NHS Ester labeled ADCs targeting Trop-2 described above at 4° C. for 1 hour in dark, and then centrifuged to remove supernatant, re-suspended in phosphate buffer (PBS, pH7.4), washed with PBS (pH7.4) three times, and the number of HS-746T cells was detected and calculated using a flow cytometer BD ACCURI C6 PLUS.

BT-20 = assay: Proliferation-inhibiting effect on tumor cells (SRB or MTT assay); format: cell-based; settings: BT-20, 144 hours
Protocol: (§1) For cells growing by adherence, SRB assay was used to detect effect of antibody-drug conjugates or camptothecins on the proliferation of tumor cells in vitro cultured. A certain number of cells in exponential growth phase were inoculated in 96-well cell culture plates, and when the cells grew by adherence overnight, antibody drug conjugates or camptothecins of different concentrations were added into the cells. 144 hours later, the cells were fixed with trichloroacetic acid, and then stained with SRB (prepared in 1% glacial acetic acid at a concentration of 4 mg/mL). 10 mM Tris solution was added into each well to solubilize the bound SRB. OD values at 510 nm were read on a microplate reader.
(§2) Inhibition (%)=([…] of control well−OD value of dosed well)/OD value of control well×100%
(§3) For cells growing in suspension, MTT assay was used to detect effect of antibody-drug conjugates or camptothecins on the proliferation of tumor cells in vitro cultured. A certain number of cells in exponential growth phase were inoculated in 96-well cell culture plates, and when the cells grew in suspension overnight, antibody-drug conjugates or camptothecins of different concentrations were added into the cells. 144 hours later, MTT was added to each well of the plates, and the incubation was continued for 4 hours at 37° C. in a 5% CO2 saturated humidity incubator. Next, 100 μL of SDS-isobutanol-HCl solution was added into each well of the plates, and OD values at 570 nm and 690 nm were read on a microplate reader.
(§4) Half maximal inhibitory concentration (IC50) was calculated from the inhibition (%) at those different concentrations using the software Graphpad Prism 8.0. The experiment was repeated once and the data was expressed as mean±SD.

BT-474 = assay: as above; format: cell-based; settings: BT-474, 144 hours
Protocol: as §1, §2, §3, §4

Colo 205 = assay: as above; format: cell-based; settings: Colo 205, 144 hours
Protocol: as §1, §2, §3, §4

MCF-7 = assay: as above; format: cell-based; settings: MCF-7, 144 hours
Protocol: as §1, §2, §3, §4

MDA-MB-231/TROP2 = assay: as above; format: cell-based; settings: MDA-MB-231/TROP2, 144 hours
Protocol: as §1, §2, §3, §4

MDA-MB-231 = assay: as above; format: cell-based; settings: MDA-MB-231, 144 hours
Protocol: as §1, §2, §3, §4

MDA-MB-468 = assay: as above; format: cell-based; settings: MDA-MB-468, 144 hours
Protocol: as §1, §2, §3, §4

[3] = system: Trop-2-negative HT-29 cells; assay: Binding activity to cells negative for Trop-2
Protocol: Different concentrations (1, 3, 10, 30, 100, 300, 1000, 3000, 10000, 30000, and 100000 ng/mL) of fluorescently labeled Trop2-ADC-14 and the mAb in Trop2-ADC-14 (i.e., antibody h23-12) were incubated with BxPC-3 cells (purchased from: ATCC) on ice for 1 hour in dark, and then the cells were centrifuged to remove supernatant, washed with PBS, re-suspended, and the fluorescence intensity of the drugs bound to the cells was measured with a flow cytometer (BD ACCURI C6 PLUS). The experiment was repeated once.

[4] = read-out: IC50 (nM) 1st experiment
[5] = read-out: IC50 (nM) 2nd experiment

B1: Trop2-ADC-14 (conjugate)
heavy: QVQLVQSGAEVKKPGASVKVSCKASGYTFTSYWMHWVRQAPGQGLEWMGEITPSDNYGSYNQKFKGRVTITRDTSTSTAYMELSSLRSEDTAVYYCARGHGNYVSFDYWGQGTLVTVSSASTKGPSVFPLAPSSKSTSGGTAALGCLVKDYFPEPVTVSWNSGALTSGVHTFPAVLQSSGLYSLSSVVTVPSSSLGTQTYICNVNHKPSNTKVDKRV[not shown - human IgG1 Fc]
light: DIQMTQSPSSLSASVGDRVTITCRASQDISNYLNWYQQKPGKAPKLLIYYTSRLESGVPSRFSGSGSGTDFTLTISSLQPEDFATYFCQQGYTLPPYTFGQGTKLEIKRTVAAPSVFIFPPSDEQLKSGTASVVCLLNNFYPREAKVQWKVDNALQSGNSQESVTEQDSKDSTYSLSSTLTLSKADYEKHKVYACEVTHQGLSSPVTKSFNRGEC
EC50 [1]: 0.06711 µg/mL and 0.07187 µg/mL and 0.0734 µg/mL and 0.0702 µg/mL | Maximum cell killing effect (%) [1]: 82.2% and 84.6% and 85.2% and 83.1% | Inhibition (%) ([2]; 0.1 μg/mL): 40.5% | Number of cells (single cells having low expression) ([2]; 0.1 μg/mL): 210600 | Inhibition (%) ([2]; 1 μg/mL): 41.7% | Number of cells (single cells having low expression) ([2]; 1 μg/mL): 206100 | IC50 (BT-20; [4]): > 65.4 nM | IC50 (BT-20; [5]): > 65.4 nM | IC50 (BT-20; read-out: IC50 (nM) Mean ± SD): > 65.4 nM | IC50 (BT-474; [4]): > 65.4 nM | IC50 (BT-474; [5]): > 65.4 nM | IC50 (BT-474; read-out: IC50 (nM) Mean ± SD): > 65.4 nM | IC50 (Colo 205; [4]): > 65.4 nM | IC50 (Colo 205; [5]): > 65.4 nM | IC50 (Colo 205; read-out: IC50 (nM) Mean ± SD): > 65.4 nM | IC50 (MCF-7; [4]): > 65.4 nM | IC50 (MCF-7; [5]): > 65.4 nM | IC50 (MCF-7; read-out: IC50 (nM) Mean ± SD): > 65.4 nM | IC50 (MDA-MB-231/TROP2; [4]): 0.05 nM | IC50 (MDA-MB-231/TROP2; [5]): 0.11 nM | IC50 (MDA-MB-231/TROP2; read-out: IC50 (nM) Mean ± SD): 0.08 ± 0.05 nM | IC50 (MDA-MB-231; [4]): > 654 nM | IC50 (MDA-MB-231; [5]): > 654 nM | IC50 (MDA-MB-231; read-out: IC50 (nM) Mean ± SD): > 654 nM | IC50 (MDA-MB-468; [4]): 7.26 nM | IC50 (MDA-MB-468; [5]): 5.13 nM | IC50 (MDA-MB-468; read-out: IC50 (nM) Mean ± SD): 6.2 ± 1.51 nM | binding to the Trop-2-negative HT-29 cells [3]: no obvious binding
